According to paper PMC4336329 (PLoS ONE, 2015):
The whole screen tested about 310,000 compounds, of which about 2,200 (0.71%) showed an effect of 50% or more. Effects have a minus sign here. The list shows a part of the results.

biological target: human ether-à-go-go-related gene (hERG) potassium channel (human, UniProt Q12809); assay: primary screen, population patch clamp on CHO cells stably expressing hERG
Sequence (Q12809 whole entry, looked up): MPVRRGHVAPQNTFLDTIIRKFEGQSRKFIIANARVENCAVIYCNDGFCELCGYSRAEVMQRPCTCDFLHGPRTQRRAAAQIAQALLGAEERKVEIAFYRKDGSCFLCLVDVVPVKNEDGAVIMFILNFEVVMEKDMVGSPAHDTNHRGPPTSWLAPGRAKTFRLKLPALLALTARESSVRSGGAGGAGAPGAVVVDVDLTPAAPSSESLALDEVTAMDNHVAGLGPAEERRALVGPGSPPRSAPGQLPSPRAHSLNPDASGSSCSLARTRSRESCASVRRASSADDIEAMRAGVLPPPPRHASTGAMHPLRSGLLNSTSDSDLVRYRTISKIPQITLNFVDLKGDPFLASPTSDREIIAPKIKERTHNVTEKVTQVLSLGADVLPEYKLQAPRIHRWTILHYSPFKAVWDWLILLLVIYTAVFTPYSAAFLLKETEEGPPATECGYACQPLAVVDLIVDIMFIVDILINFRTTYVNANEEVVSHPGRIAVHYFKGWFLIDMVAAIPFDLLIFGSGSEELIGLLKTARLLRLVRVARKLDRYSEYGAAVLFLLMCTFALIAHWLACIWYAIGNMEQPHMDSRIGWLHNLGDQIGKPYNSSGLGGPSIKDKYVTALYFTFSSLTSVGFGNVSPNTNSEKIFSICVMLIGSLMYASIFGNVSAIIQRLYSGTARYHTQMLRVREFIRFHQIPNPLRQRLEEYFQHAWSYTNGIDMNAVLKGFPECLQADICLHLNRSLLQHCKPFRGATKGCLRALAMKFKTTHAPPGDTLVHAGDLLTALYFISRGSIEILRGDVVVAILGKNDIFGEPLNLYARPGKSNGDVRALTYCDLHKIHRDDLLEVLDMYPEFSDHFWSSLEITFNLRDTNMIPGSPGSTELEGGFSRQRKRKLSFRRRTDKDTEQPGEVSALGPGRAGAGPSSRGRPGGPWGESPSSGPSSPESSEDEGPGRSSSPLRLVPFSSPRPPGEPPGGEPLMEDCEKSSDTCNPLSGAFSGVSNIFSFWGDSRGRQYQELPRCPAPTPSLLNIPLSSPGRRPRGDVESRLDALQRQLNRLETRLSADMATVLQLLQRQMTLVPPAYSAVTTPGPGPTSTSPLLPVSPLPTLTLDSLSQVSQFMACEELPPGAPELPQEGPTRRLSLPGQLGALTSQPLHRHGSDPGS

| SMILES | hERG current change (%, negative = inhibition) at 1uM [%] |
| --- | --- |
| CN(C)S(=O)(=O)c1ccc(N2CCCC2)c(C(=O)Nc2nc(-c3ccc(F)cc3)cs2)c1 | 11.9 |
| N#Cc1ccc(OCC(O)CN2CCN(c3ncc(C(F)(F)F)cc3Cl)CC2)cc1 (stereo not shown) | -81.4 |
| CC(C)NC(=S)Nc1c(N)[nH]c(=O)[nH]c1=O | 15.3 |
| CCCCN(C)C(=O)Cc1c(OC)ccc2cc(Br)ccc12 | -2.37 |
| COc1ccc(C(=O)NCCS(=O)(=O)NCc2cccnc2)cc1 | 8.15 |
| Cc1noc2ncnc(Oc3ccccc3)c12 | 5.41 |
| Cc1ccc(Cn2nnc3c(=O)[nH]c(C4CCCN(C(=O)Nc5ccc(F)cc5F)C4)nc32)cc1 (stereo not shown) | 13.8 |
| Cc1[nH]c2ccccc2c1C(=O)C(C)OC(=O)c1ccc(Cl)nc1 (stereo not shown) | 8.91 |
| CCN(CC(=O)NCc1cccs1)c1ccc(S(=O)(=O)N2CCCC2)cn1 | -9.89 |
| CN(C)S(=O)(=O)N1CCN(C(=O)c2ccccc2)CC1 | 8.58 |
| CCOC(=O)c1c(O)c(O)c(C(=O)OCC)n1-c1ccccc1 | 14.6 |
| C=CCn1cnc2c(nnn2-c2cc(C)cc(C)c2)c1=O | 5.82 |
| CCOc1ccc(C2/C(=C(\O)c3ccc4c(c3)OCCO4)C(=O)C(=O)N2CCN2CCOCC2)cc1OCC (stereo not shown) | 6.82 |
| Cc1cc(S(=O)(=O)Nc2ccc(C(=O)NCc3cccnc3)cc2)ccc1F | 5.88 |
| CC(C(=O)NCC1CCCCC1)N1CCN(S(=O)(=O)c2ccccc2F)CC1 (stereo not shown) | 10.2 |
| CCN(CC)c1ccc2c(c1)CCCN2.Cl | 10.4 |
| O=C(Nc1ccc(Cc2ccncc2)cc1)C1CCC(N2C(=O)C3CCCCC3C2=O)CC1 (stereo not shown) | 4.62 |
| CC1(C)CC(=O)C=C(Nc2ccc(C(=O)O)c(O)c2)C1 | 15.3 |
| C(=C\c1ccccc1)/C=N/Nc1ccc2nncn2n1 | -3.59 |
| CN1CCN(c2ccc([N+](=O)[O-])c(Sc3nc4ccccc4[nH]3)c2)CC1 | 6.54 |
| O=C(NCc1ccccc1)C1CCC(=O)N(CCN2CCOCC2)C1 (stereo not shown) | 15.8 |
| Cc1cccc(NS(=O)(=O)c2cccc(C(=O)N3CCC3)c2)c1 | 13.6 |

| SMILES | hERG current change (%, negative = inhibition) at 1uM [%] |
| --- | --- |
| O=C(COc1ccccc1)N1CCN=C1SCc1cccc(F)c1 | 8.03 |
| CC(C)Cc1nc2sc3c(=O)[nH]cnc3c2c2c1CCC2 | 7.77 |
| Clc1ccc(Cn2nc(-c3ccccc3)nc2-c2ccccc2)cc1 | -2.71 |
| O=C(c1ccccc1)C1CCN(CC(=O)N2CCN(c3ccccc3)CC2)CC1 | 10.9 |
| CN(NC1CC(=O)N(c2ccccc2)C1=O)c1ccccc1 (stereo not shown) | 7.11 |
| CNc1nc(N)c([N+](=O)[O-])c(NCC2CCCO2)n1 (stereo not shown) | 14.8 |
| Cc1ccc(SCC(=O)Nc2ccc(N3CCN(C)CC3)c(F)c2)cc1 | -20.9 |
| COc1ccc(-n2cnc3sccc3c2=O)cc1 | 16.4 |
| N#Cc1ccc(C(=O)OCC(=O)N2CCCC2)cc1 | 18 |
| CCCNC(=O)c1onc(CSc2ccc(Cl)cc2)c1C(=O)NCCOC | -6.65 |
| CN(CC(=O)Nc1cccnc1)S(=O)(=O)c1cc(Cl)ccc1Cl | 1.33 |
| CC(NC(=O)Nc1ccc2c(c1)OCO2)c1ccncc1 (stereo not shown) | 2.49 |
| Cc1ccc(NS(=O)(=O)c2ccc(C(=O)N3CC(C)CC(C)C3)cc2)cc1 (stereo not shown) | -0.772 |
| CCOC(=O)C(NC(=O)CC)(Nc1ccc(S(=O)(=O)Nc2cc(C)on2)cc1)C(F)(F)F (stereo not shown) | 21 |
| O=C(O)c1cc(Cl)c2c(c1)[C@@H]1C=CC[C@@H]1[C@H](c1ccc(S(=O)(=O)N3CCOCC3)cc1)N2 | -0.464 |
| Cc1nccc(-c2sc(-c3cccs3)nc2C)n1 | 2.8 |
| Cc1ccc(/C=C/C(=O)NC2=NCCS2)cc1 | 11.8 |
| Cc1nn(C)cc1/C=N/NC(=O)C(C)(C)Oc1ccc(Cl)cc1 | 11.5 |
| CC(C(=O)Nc1ccccc1-c1ccccc1)N1CCN(S(=O)(=O)c2ccccc2)CC1 (stereo not shown) | 1.45 |
| O=C(CSc1ncn[nH]1)N1CCCCC1 | 0.658 |
| Cc1ccc(C)c(NC(=O)CSc2nnc(CCNC(=O)OC(C)(C)C)o2)c1 | 3 |
| COCCn1c(SCC(=O)Nc2ccc(OC)cc2)nc2c(oc3ccccc32)c1=O | 12.4 |

| SMILES | hERG current change (%, negative = inhibition) at 1uM [%] |
| --- | --- |
| O=C(N/N=C/c1ccc(F)cc1)c1sccc1OCc1ccc(F)cc1 | 1.27 |
| CC(C)c1ccc(OCC(O)CN2CCN(c3ccccc3)CC2)cc1.Cl (stereo not shown) | 1.24 |
| COc1ccc(NC(=O)CN2CCN(c3ccccc3C)CC2)cc1 | -10.7 |
| O=C(Oc1cccc(C(=O)N2CCOCC2)c1)c1ccc(Br)cc1 | 16.3 |
| CCCn1c(C(=O)OC)cc2c1ccn2-c1ccc(F)cc1 | 14 |
| CCC(C(=O)NC1CCCCC1)N(Cc1cccs1)C(=O)c1snc(C(N)=O)c1N (stereo not shown) | 5.07 |
| Cc1ccccc1-c1nnc(SCC(=O)N(CC(C)C)c2c(N)n(CC(C)C)c(=O)[nH]c2=O)n1C | 11.9 |
| COc1ccc2cc(C(=O)C3CCCN(C(=O)c4sc(C)nc4C)C3)ccc2c1 (stereo not shown) | 7.37 |
| COc1ccc(OC)c(NC(=O)COC(=O)CSc2ccc(Cl)cc2)c1 | 5.68 |
| N#CC1=C(N)Oc2n[nH]c(-c3ccccc3)c2C12C(=O)Nc1ccccc12 (stereo not shown) | 20.7 |
| COc1ccccc1CN(Cc1cc2c(C)ccc(C)c2[nH]c1=O)Cc1nnnn1Cc1ccco1 | 15.1 |
| O=C(O)c1ccc(C2NCC(c3ccccc3Cl)c3c2[nH]c2ccccc32)cc1 (stereo not shown) | 5.07 |
| N#Cc1ccccc1NC(=O)COC(=O)CSc1nc2ccccc2o1 | 8.1 |
| COc1ccc(-c2nnc(SCC(=O)O)n2Cc2ccccc2)cc1 | 19.8 |
| C/C(=C\C(=O)Nc1cc(C)on1)c1ccccc1 | 7.51 |
| Br.CCCCN1C2=NCCCN2c2ccccc21 | -6.43 |
| O=C(CNc1cccc(S(=O)(=O)N2CCCC2)c1)Nc1cccc(Br)c1 | 3.17 |
| CCOC(=O)N1CCN(C(=O)c2ccc3c(SCC(=O)O)c4c(nc3c2)CCC4)CC1 | 9.04 |
| Cc1nc(-c2cccc(S(=O)(=O)N3CCCC(C)C3)c2)cs1 (stereo not shown) | 12.5 |
| CC(C)NC(=O)COC(=O)C1CSC2(c3ccc(Br)cc3)CCC(=O)N12 (stereo not shown) | 2.94 |
| CCOc1ccc(N(CC)S(=O)(=O)c2ccc3c(c2)oc(=O)n3C)cc1 | 8.37 |
| COc1ccc(C(C(=O)NC(C)(C)C)N(Cc2cccs2)C(=O)CCC(=O)Nc2cc(C)on2)cc1 (stereo not shown) | 14.9 |

| SMILES | hERG current change (%, negative = inhibition) at 1uM [%] |
| --- | --- |
| Cn1c(=O)c2c(nc(CN3CCC(C(N)=O)CC3)n2Cc2ccccc2F)n(C)c1=O | 8.26 |
| COc1cccc(CN(C(=O)/C=C/c2ccc(Cl)cc2)C2CCS(=O)(=O)C2)c1 (stereo not shown) | 5.84 |
| O=S(=O)(c1ccccc1)n1nc(-c2ccccc2)nc1NCc1ccco1 | 9.59 |
| O=C(c1ccc(Cl)cc1)[C@@H]1[C@@H]2C(=O)N(c3cccc4ccccc34)C(=O)[C@@H]2C2c3ccccc3C=NN21 (stereo partly shown) | 11.3 |
| CC(C)c1ccc(OCC(=O)NCc2ccccc2)cc1 | 2.11 |
| CN(CCCN1CCOCC1)C(=O)c1cc(COc2ccc(F)cc2F)on1 | 2.35 |
| COc1ccc(-c2c(C)n([O-])c(C)c(C)[n+]2=O)cc1OC | 14.1 |
| Cc1cc(C(=O)N/N=C/c2cc(Cl)cc([N+](=O)[O-])c2O)c2ccccc2n1 | 18.8 |
| O=C(CCl)NCC1CCCO1 (stereo not shown) | 10.1 |
| COc1ccc(C(=O)Nc2cc3c(oc2=O)CCCC3=O)cc1 | 19.1 |
| O=C(CN1CCN(c2ccc(O)cc2)CC1)Nc1ccccc1C(=O)NCCc1ccccc1 | 11.6 |
| Cc1c(C(=O)N(C)Cc2ccc(OC(F)F)cc2)oc2ccccc12 | 1.03 |
| CC(=O)N(C)c1ccc(NC(=O)Nc2ccc(C)cc2)cc1 | 6.94 |
| Cc1cc(=O)oc2cc(OC(C)C(=O)NC3CCCC3)ccc12 (stereo not shown) | -34.8 |
| COc1ccc(C(=O)Cc2nnc(C)s2)cc1 | 13.5 |
| COC(=O)c1cc2nc(-c3ccc(C)cc3)cc(C(F)(F)F)n2n1 | -6.16 |
| CC(C)(CNC(=O)c1ccc(Br)o1)N1CCOCC1 | 8.4 |
| COc1cc(OC)cc(C(=O)NC(=S)Nc2nc(-c3cc4ccccc4o3)cs2)c1 | 6.79 |
| CCOc1ccc(C2OC34CCCCC3C(C#N)(C#N)C2(C#N)C(=N)O4)cc1OC (stereo not shown) | 4.84 |
| CCC(=O)N(Cc1cc2c(C)ccc(C)c2[nH]c1=O)C1CCCCC1 | -8.25 |
| Cc1ccc(C)c(NC(=O)CN(C)C(=O)COc2ncnc3sccc23)c1 | 6.33 |
| O=C(NCc1ccc(Cl)cc1)c1cc2ccccn2n1 | 3.9 |
